Among all 39,000 compounds or so, about 220 (0.56%) showed activity. The list shows a part of the results.
What follows are compounds tested on Escherichia coli K-12 BW25113 (assay: relative growth (OD600 normalised to plate interquartile mean) (fraction); higher = less growth inhibition, active = 0.2 or less). Details: 50 µM; LB; incubation time: overnight (16-24 h).
`Cc1cc(C(=O)Nc2cccc3c2O[C@H](CN(C)Cc2ccc4c(c2)OCO4)[C@H](C)CN([C@@H](C)CO)C3=O)n(C)n1` was tested, and the relative growth was inactive: 0.984. For `CC(C)(C)NC(=O)[C@@H]1CN(Cc2cccnc2)CCN1C[C@@H](O)C[C@@H](Cc1ccccc1)C(=O)N[C@H]1c2ccccc2C[C@H]1O`, the relative growth was inactive: 1.01. For `COc1ccc(S(=O)(=O)N(C)C[C@H]2Oc3ccc(NS(C)(=O)=O)cc3C(=O)N([C@@H](C)CO)C[C@@H]2C)cc1`, the relative growth was inactive: 0.984. In the case of `C[C@H](CO)N1C[C@H](C)[C@@H](CN(C)CC2CC2)Oc2ccc(NS(=O)(=O)c3cccs3)cc2CC1=O`, the relative growth is reported as inactive: 0.974. `C[C@@H]1CN([C@@H](C)CO)C(=O)Cc2cc(NC(=O)Nc3cccc4ccccc34)ccc2O[C@@H]1CN(C)Cc1ccc(C(=O)O)cc1` was tested, and the relative growth was inactive: 0.999. With `C[C@@H](NC(=O)C[C@@H]1C=C[C@H](NC(=O)CN2CCOCC2)[C@H](CO)O1)c1ccccc1` the relative growth was inactive: 1.02. For `Cc1noc(C)c1S(=O)(=O)Nc1ccc2c(c1)C(=O)N([C@@H](C)CO)C[C@H](C)[C@@H](CN(C)Cc1ccncc1)O2`, the relative growth was inactive: 0.952. With `Cc1noc(C)c1S(=O)(=O)Nc1ccc2c(c1)C(=O)N([C@H](C)CO)C[C@H](C)[C@@H](CN(C)C(=O)Nc1ccc(F)cc1)OCCCC[C@H](C)O2` the relative growth was inactive: 0.982. For `C[C@H]1CN([C@@H](C)CO)C(=O)Cc2cc(NC(=O)Nc3cccc4ccccc34)ccc2O[C@H]1CN(C)C(=O)Nc1ccc2c(c1)OCO2`, the relative growth was inactive: 0.99. In the case of `Cc1ccc(S(=O)(=O)Nc2ccc3c(c2)C(=O)N([C@@H](C)CO)C[C@@H](C)[C@@H](CN(C)S(=O)(=O)c2ccc(F)cc2)OCCCC[C@@H](C)O3)cc1`, the relative growth is reported as inactive: 1. With `C[C@@H]1CCCCO[C@@H](CN(C)Cc2ccccc2)[C@H](C)CN([C@H](C)CO)C(=O)c2cc(NC(=O)c3ccncc3)ccc2O1` the relative growth was inactive: 0.948. `O=C1O[C@@H](c2ccccc2)[C@@H](c2ccccc2)N2[C@@H](c3ccc(OCCO)cc3)[C@]3(C(=O)Nc4ccc(C#CC5(O)CCCCCC5)cc43)[C@@H](C(=O)Nc3nc4ccccc4s3)[C@H]12` was tested, and the relative growth was inactive: 1. `COc1ccc2c(c1)OC(C)(C)C[C@@H]2N` was tested, and the relative growth was inactive: 0.985. For `CCC1OC(=O)C(C)C(OC2CC(C)(OC)C(O)C(C)O2)C(C)C(OC2OC(C)CC(N(C)C)C2O)C(C)(O)CC(C)C(=NOCOCCOC)C(C)C(O)C1(C)O` (stereo not drawn), the relative growth was inactive: 0.613. With `O=C(C[C@H]1CC[C@H]2NC[C@@H](O)COC[C@@H]2O1)NCCN1CCCC1` the relative growth was inactive: 1.02. In the case of `COc1ccc(S(=O)(=O)Nc2ccc3c(c2)C(=O)N([C@H](C)CO)C[C@@H](C)[C@H](CN(C)C(=O)NC2CCCCC2)OCCCC[C@H](C)O3)cc1`, the relative growth is reported as inactive: 0.994. `CC(C)NC(=O)Nc1ccc2c(c1)CC(=O)N([C@@H](C)CO)C[C@@H](C)[C@H](CN(C)S(=O)(=O)c1ccc(Cl)cc1)O2` was tested, and the relative growth was inactive: 0.997. In the case of `C[C@H](CO)N1C[C@H](C)[C@H](CN(C)Cc2ccccc2)Oc2cc(C#CC(C)(C)O)ccc2S1(=O)=O`, the relative growth is reported as inactive: 0.988. In the case of `Cc1ccc(S(=O)(=O)N(C)C[C@@H]2Oc3ccc(NS(=O)(=O)c4cn(C)cn4)cc3CC(=O)N([C@@H](C)CO)C[C@H]2C)cc1`, the relative growth is reported as inactive: 0.989. With `COC(=O)c1ccc(CNC(=N)N)cc1` the relative growth was inactive: 1.01. `N[C@H]1CS(=O)(=O)c2ccccc21` was tested, and the relative growth was inactive: 0.927. With `C[C@H]1CCCCO[C@H](CN(C)Cc2ccc3c(c2)OCO3)[C@@H](C)CN([C@@H](C)CO)C(=O)c2cc(NC(=O)c3ccccc3)ccc2O1` the relative growth was inactive: 1.01. `Cc1cc(C)n(C(N)=S)n1` was tested, and the relative growth was inactive: 0.941. In the case of `C[C@@H]1CN([C@@H](C)CO)C(=O)c2cc(NC(=O)Nc3cccc4ccccc34)ccc2O[C@@H](C)CCCCO[C@@H]1CN(C)CC1CCCCC1`, the relative growth is reported as inactive: 1.03. For `COC(=O)[C@@H](Cc1ccc(-n2cc(COc3ccccc3/C=C(C)/C=C/C(=O)NO)nn2)cc1)N1CC2=CCCC=C[C@@H]2[C@H]1[C@H](O)Cc1ccccc1`, the relative growth was inactive: 0.833. With `C[C@H]1CN([C@@H](C)CO)C(=O)c2cccc(NC(=O)Nc3ccc(F)cc3)c2O[C@H]1CN(C)C(=O)Nc1cccc2ccccc12` the relative growth was inactive: 0.992. In the case of `Cc1ccc(S(=O)(=O)Nc2ccc3c(c2)CC(=O)N([C@@H](C)CO)C[C@@H](C)[C@@H](CN(C)S(C)(=O)=O)O3)cc1`, the relative growth is reported as inactive: 1. With `CO[C@@H]1CN(C)C(=O)c2ccc(NC(=O)C3CCCC3)cc2OC[C@@H](C)N(C(=O)Nc2ccc(C(F)(F)F)cc2)C[C@H]1C` the relative growth was inactive: 0.967. `CC(=O)N1CCC[C@H](C(=O)O)C1` was tested, and the relative growth was inactive: 0.991. For `C[C@H](CO)N1C[C@H](C)[C@@H](CN(C)S(=O)(=O)c2ccc3ccccc3c2)OCc2cnnn2CCCC1=O`, the relative growth was inactive: 0.985. With `NC[C@@H](O)CC(=O)O` the relative growth was inactive: 1. `Clc1ccc(/C=C/C2=Nc3cccc4cccc(c34)N2)cc1` was tested, and the relative growth was inactive: 1.08. In the case of `C[C@@H]1CN([C@H](C)CO)C(=O)c2cc(NS(=O)(=O)c3ccc(Cl)cc3)ccc2O[C@@H]1CN(C)Cc1ccc(Oc2ccccc2)cc1`, the relative growth is reported as inactive: 0.96. For `CC(C)(Oc1ccc(C2CC2(Cl)Cl)cc1)C(=O)O` (stereo not drawn), the relative growth was inactive: 1.06. `C[C@H]1CCCCO[C@H](CN(C)C(=O)Nc2ccc3c(c2)OCO3)[C@@H](C)CN([C@@H](C)CO)C(=O)c2cc(NC(=O)Nc3ccc(F)cc3)ccc2O1` was tested, and the relative growth was inactive: 1.04. `C[C@@H]1CCCCO[C@@H](CN(C)C(=O)Nc2ccc(C(F)(F)F)cc2)[C@H](C)CN([C@H](C)CO)C(=O)c2cc(NC(=O)c3ccccc3)ccc2O1` was tested, and the relative growth was inactive: 1.05. For `COc1ccccc1CNC(=O)C[C@@H]1C[C@@H]2c3cc(NC(=O)Nc4ccc(C(F)(F)F)cc4)ccc3O[C@@H]2[C@H](CO)O1`, the relative growth was inactive: 0.927. With `C[C@H]1CN([C@@H](C)CO)C(=O)Cc2cc(NC(=O)CCCCCC(=O)Nc3ccccc3N)ccc2O[C@H]1CN(C)Cc1ccc(Oc2ccccc2)cc1` the relative growth was inactive: 0.973.

— the supplement of paper PMC9446081
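Also: static incubation at 37 °C against the wild-type strain, values averaged over two biological replicates.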
